Source: PubChem BioAssay AID1745845 (National Center for Advancing Translational Sciences (NCATS), 2022)
The whole screen tested about 360,000 compounds, of which about 2,600 (0.72%) were called active. This list was built around the results that the source calls inconclusive (neither active nor inactive); the mix of calls is not that of the screen. Calls follow the shape of the dose curve; as a rule, active = well fitted inhibition curve with a large enough effect; inconclusive = small, poorly fitted or top-dose-only effect; inactive = no such curve, though single readings can be large or run the other way. A potency beside an inconclusive call is a rough fit, not a confirmed value.

assay: Primary qHTS for Inhibitors of ATXN expression; conditions: HEK-293 ATXN2-luciferase reporter, luminescence, 24 h; activity change, negative = inhibition: at 57 µM (top of the series); also: nearly all actives have a fitted effect of over 55% in size
Method in brief: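 ATXN2-luciferase reporter cells (luciferase flanked by upstream and downstream ATXN2 gene portions) were treated 24 h at 37 °C with compounds at up to 57 uM. SteadyGlo luminescence gave expression; GF-AFC fluorescence gave viability.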
% is scaled to controls: 0 for no effect and ±100 for the full control effect; potency is read from the fitted curve at half-maximal effect; tags tell the direction and shape of the fitted curve.

Potency, inactive:
CN(C)c1ccc(CNC(=O)Cc2ccc(NC(=O)N3CCCCc4ccccc43)cc2)cc1
CN(C)/C=N/c1ncc(-c2ncc(C(F)(F)F)cc2Cl)cn1
Cc1cccc2nc(Cn3c(=O)n(-c4ccc(Cl)cc4)c(=O)c4c5c(sc43)CCC5)cc(=O)n12
COC(=O)CCC(=O)OC1(C)C(=O)C2=CN(Cc3ccccc3)C(c3ccc(OC)cc3)=CC2=C(Br)C1=O (stereo not drawn)
COc1ccc2nc(NC(=O)CSc3ccccc3)sc2c1
COc1cc(C(=O)OCC(=O)NC2CCCCC2)cc(OC)c1OC
COCCCn1c(SCC(=O)OC2CCCCC2)nnc1-c1ccco1
CC1(C)Cc2c(sc3nc(-c4ccccc4)n(N)c(=O)c23)CO1
Cn1c(CCNC(=O)c2ccc(Cl)c(Cl)c2)nnc1SCc1ccc(Cl)c(Cl)c1
CN1CCN(C2CCN(Cc3ccc(O)c4ncccc34)CC2)CC1
O=[N+]([O-])c1cccc(-c2csc(Nc3ccccc3)n2)c1
CC(=O)c1cc(C)c(OC(=O)c2ccccc2)c(C)c1
CCN(CC)CCCNc1ncnc2ccccc12

Potency, inconclusive:
NC(=O)CC(NC(=O)Cc1ccc(Br)cc1)c1ccc(NC2CCCCCC2)c([N+](=O)[O-])c1 (stereo not drawn) 39.8 µM [inhibitor, single point]
Cc1cccc(Nc2nc(-c3ccccn3)cs2)n1 39.8 µM [inhibitor, single point]
COc1cccc(-c2cc(NC=O)c3ncc(-c4cccc(C(=O)N(C)C)c4)n3c2)c1 28.2 µM [inhibitor, single point]
NC(Cc1ccc(F)cc1)c1csc(Nc2cc(Oc3ccccc3)ncn2)n1 (stereo not drawn) 25.1 µM [inhibitor, single point]
CC1CC(Nc2ccccc2)c2ccccc2N1C(=O)c1cccnc1 (stereo not drawn) 25.1 µM [inhibitor, partial curve, poor fit]
CCCCN(CC)CCNC(=O)c1cc2c(=O)n(C)c3ccccc3c2n1C 39.8 µM [inhibitor, single point]
CC(=O)OCCn1c(C)[n+](CCOC(C)=O)c2cc(Cl)c(Cl)cc21 3.55 µM [inhibitor, single point]
CC[n+]1c(/C=C/N(C)c2ccccc2)oc2ccc(F)cc21 16.8 µM [inhibitor, partial curve, poor fit]
COc1ccc2cc(Br)ccc2c1CC(=O)NC1CC(C)(C)NC(C)(C)C1 35.5 µM [inhibitor, single point]
C[C@H](CO)N1C[C@H](C)[C@@H](CN(C)Cc2ccc(Oc3ccccc3)cc2)Oc2c(NC(=O)C3CC3)cccc2C1=O 31.6 µM [inhibitor, single point]
O=S(=O)(NCc1ccccc1)c1ccc(S(=O)(=O)N2CCCC2)cc1 3.55 µM [inhibitor, partial curve, poor fit]
N#CC1(Cc2ccccc2Cl)c2ccccc2C=CN1C(=O)c1ccccc1 (stereo not drawn) 39.8 µM [inhibitor, single point]
COc1ccc(NC(=O)c2c(NCc3cccc(F)c3)sc3c2CCC3)c(OC)c1 28.2 µM [inhibitor, single point]
CCOC(=O)c1c(CN2CCN(CC#N)CC2)n(C)c2cc(Br)c(OC)cc12 14.1 µM [inhibitor, partial curve, poor fit]
COc1cccc2sc3ccc(C#CC4(O)CCCCC4)cc3c(=O)c12 39.8 µM [inhibitor, single point]
CCOC(=O)Cc1csc(NC(=O)/C=C/c2ccc(OC)cc2)n1 14.1 µM [inhibitor, partial curve]
CCc1nc2ccc(C(=O)NC3CCN(Cc4ccccc4)CC3)cn2c1N(C)Cc1cc2ccccc2s1 35.5 µM [inhibitor, single point]
CCCn1c(CN(Cc2ccccc2)Cc2ccccc2)nc2c1c(=O)n(C)c(=O)n2C 37.7 µM [inhibitor, single point]
COc1ccc(O)c(/C=N\NC(=O)CCn2nnc3ccccc32)c1 28.2 µM [inhibitor, single point]
COc1ncc(-c2ccc3nccc(-c4ccnnc4)c3c2)cc1NS(=O)(=O)c1ccc(F)cc1F 0.385 µM [inhibitor, partial curve]
O=C(c1cnc2n(c1=O)CCS2)N1CCN(C(c2ccccc2)c2ccc(Cl)cc2)CC1 (stereo not drawn) 37.7 µM [inhibitor, single point]
N#C/C(=C\c1ccc(-c2ccccc2)cc1)c1nc(-c2ccco2)cs1 39.8 µM [inhibitor, single point]
Cc1cccc(N2CCN(C(c3cccs3)c3nnnn3C(C)(C)C)CC2)c1C (stereo not drawn) 31.6 µM [inhibitor, partial curve, poor fit]
CN1CCN(c2ncnc3c2ncn3[C@H]2CN(Cc3ccc(-c4ccccc4)cc3)C[C@@H](CO)O2)CC1 35.5 µM [inhibitor, single point]
COc1cccc(-n2sc3c(c2=S)-c2cc(OC)ccc2NC3(C)C)c1 17.8 µM [inhibitor, partial curve, poor fit]
Cc1cc(C2(c3ccc(O)c(C)c3)C(=O)Nc3ccccc32)ccc1O 39.8 µM [inhibitor, single point]

Potency, active:
O=C(C(Br)=Cc1ccccc1)c1ccccc1 20 µM
O=C(CNC(=O)c1ccc(F)cc1)N/N=C/c1cc(Br)ccc1OC(=O)/C=C/c1ccco1 8.91 µM
COc1ccccc1CNc1nc(NCc2cccc(OC)c2OC)c2sccc2n1 31.6 µM

Activity change, negative = inhibition, inconclusive:
O=C(/C=C\Nc1ccc2c(c1)OCO2)c1ccc2c(c1)OCO2 -50.4% [inhibitor]
